Where “and” joins values, the source holds several entries; their conditions need not be identical. Identical values can stand only once.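 How tested: cells in 96-well plates exposed to compound for 48 hours at five concentrations. GI50: concentration for 50% inhibition of growth. TGI is the concentration that stops growth completely.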

Consider 79 molecules from PubChem BioAssay (NCI).

The test system of this assay is NCI-H322M lung. The assay is described as follows: inhibition of tumour cell growth, NCI panel, 48 h.
Consider `Cc1nc2ccccc2c(=O)n1-c1ccccc1F`, for which the TGI is over 100 µM.
`O=C1NN(C2=NNC3(C(=O)N2)c2ccccc2-c2ccccc23)C(c2ccccc2)=N/C1=C/c1ccc(O)cc1`: the GI50 was 84.4 µg/mL and the TGI is over 150 µg/mL.
For `COc1cc2c3c(n(CCCCOC(=O)C(Cl)(Cl)Cl)c(=O)c2cc1OC)-c1cc2c(cc1C3=O)OCO2` the same measures were over 100 µM and over 100 µM.
As for `CC(=O)OCCOCn1cnc2c(Cl)nc(Cl)nc21`, the TGI was 61.3 µM.
`N#Cc1c(-c2ccccc2)cc(Nc2cccc(C(F)(F)F)c2)n2c1nc1ccccc12` returned a TGI of 8.98 µM.
Still for that read-out and setting: for `NNc1nncc2n[nH]nc12` the value was over 100 µM.
In turn, `O=C1O/C(=C(/Cl)c2cccc3ccccc23)c2ccccc21` gave a TGI of over 100 µM.
Molecule `CCO/N=C(/N)c1ncn(Cc2ccccc2)c1NCC(OCC)OCC` yielded a TGI of over 100 µM.
Take `COc1cc2c3c(n(C)c(=O)c2cc1OC)-c1cc2c(cc1/C3=C\CNCCCN)OCO2`: the GI50 is 0.277 µM and the TGI turned out to be 2.56 µM.
`CO[C@H]1C=C[C@@]23c4cc5c(cc4CO[C@]2(O)CN(C)[C@H]3C1)OCO5` gave a TGI of over 100 µM.
The same measure, in the same setting: for `COC(=O)C(=Cc1cc(OC)c(OC)c(OC)c1-c1cc2c(cc1C(C)=O)OCO2)C(=O)OC` the value was 68.6 µM; for `CN1C(=O)c2ccccc2NC(=O)C12O[C@@H]2c1cccc(O)c1` (some centres undefined), over 100 µM; for `COC(=O)CCc1cc(O)c2c(c1)C(C(=O)OC)C(c1ccc(O)c(O)c1)O2` (centres undefined), over 100 µM.
Regarding `COc1cc(O)c2c(c1)OCC(Cc1ccc(O)cc1)C2=O` (centres undefined), the TGI is over 100 µM.
Regarding `Cc1ccc(NC(=O)NCCCOc2ccc(N3C(N)=NC(N)=NC3(C)C)cc2Cl)cc1S(=O)(=O)F`, the GI50 was 21.4 µM and the TGI is over 100 µM.
Take `COc1ccccc1N1CCN(CCCN2/C(=C(\O)c3ccccc3)C(=O)c3c(C)cc(C)nc3S2(=O)=O)CC1`: the TGI is over 100 µM.
The same measure, in the same setting: for `CCOC(=O)CN=C1NNS(=O)(=O)c2ccccc21` the value was over 100 µM; for `O=C1C(Cl)C(c2cccc(Cl)c2)N1c1ccc(-n2c(=S)[nH]c3ccccc3c2=O)cc1` (centres undefined), 90.3 µM.
`CC1ON2CCCC2[C@H]1C(=O)N1C2CC3CCC2(CS1(=O)=O)C3(C)C` (some centres undefined) returned a TGI of over 100 µM.
Still for that read-out and setting: for `CN(/N=C/c1ccc(OCc2cccc(COc3ccc(C=O)cc3)n2)cc1)c1cnn(-c2ccc(Cl)cc2Cl)c(=O)c1Cl` the value was over 100 µM; for `COc1cc2c(c(OC)c1)C1(CC(CC#N)C2)SCCS1` (centres undefined), over 100 µM; for `CCn1c(SCC(=O)NNC(=S)Nc2ccc(C)cc2)nc2ccccc2c1=O`, over 100 µM.
Turning to `C/C=C1/C(=C/c2[nH]c(/C=c3\[nH]/c(=C/C4=NC(=O)C(CC)=C4C)c(C)c3CCC(=O)O)c(CCC(=O)O)c2C)NC(=O)C1C` (centres undefined), the GI50 was over 150 µg/mL and the TGI was over 150 µg/mL.
With `O=[N+]([O-])c1cccc2nc3ccccc3c(NCCC[N+]3([O-])CCOCC3)c12`, the TGI amounted to 2.11 µM.
In turn, `Cc1[nH]n(C2=NCCN2)c(=O)c1Cc1ccccc1` came in with a TGI of over 100 µM.
Regarding `COc1cc(NS(=O)(=O)c2ccc(-c3cnc(C4CC4)o3)cc2)ccc1F`, the GI50 is 1.4 µM and the TGI came out at 47.6 µM.
Regarding `C/C(=N\Nc1ccc(Cl)cn1)c1ccccn1`, the GI50 is 0.0643 µM and the TGI was over 100 µM.
Consider `CCCS(=O)(=O)/C(=C(\c1ccc(Br)cc1)S(=O)(=O)CCC)c1ccc(Br)cc1`, for which the TGI is over 10 µM.
In the case of `Cc1ccc2c(c1)C1(C)OC(C=CC1=O)O2` (centres undefined), the TGI was determined as 17 µM.
The same measure, in the same setting: for `CCCCN1CSC(=S)N(Cc2ccccc2)C1` the value was over 100 µM; for `CC(C)(C)c1cc(NC(=O)Cc2ccc(-c3cnc4cc(-c5cnn(CCN6CCOCC6)c5)ccc4n3)cc2)no1`, 50 µM and > 100 µM and > 3 µM.
`CC[C@H](C)[C@H]1O[C@]2(C=C[C@@H]1C)C[C@@H]1C[C@@H](C/C=C(\C)[C@@H](O[C@H]3C[C@H](OC)[C@@H](O[C@H]4C[C@H](OC)[C@@H](NC)[C@H](C)O4)[C@H](C)O3)[C@@H](C)/C=C/C=C3\CO[C@@H]4[C@H](O)C(C)=C[C@@H](C(=O)O1)[C@]34O)O2`: the GI50 is 2.03 µM and the TGI is 5.52 µM.
The molecule `C=C1CC[C@H](O)C(C)(C)[C@@H]1CC/C(C)=C/CC/C=C(\C)CC/C=C(\C)CCC=C(C)C` gave a TGI of over 100 µM.
The same measure, in the same setting: for `CC(C)=CC(=O)C[C@H]1C(=O)O[C@@H]2C[C@H]3C(C)=CC(=O)[C@@H](O)[C@]3(C)[C@H]3[C@@]4(O)OC[C@]32[C@@H]1[C@@H](C)[C@H]4O` the value was 6.74 µM; for `O=C1O/C(=C(/Br)c2ccc(Cl)c(Cl)c2)c2ccccc21`, over 10 µM; for `COc1ccc(/C(Cl)=C(\C=O)c2ccc([N+](=O)[O-])cc2)cc1`, over 82 µM.
On the same count and under the same terms, for `CC(C)CCCC(=O)CCCCCCC(=O)CCN(O)C(=O)C(N)CO` (centres undefined) the value was 32.7 µM; for `Cn1c(=O)c2[nH]c(CCCCC(=O)O)nc2n(C)c1=O`, over 100 µM; for `Cc1cccc2c(N)c3cccc(C(=O)NCC[N+](C)(C)Cc4c([N+](=O)[O-])ncn4C)c3nc12`, over 100 µM.
The molecule `CC(C)Oc1ccc2c(c1)OCC1Cc3ccccc3OC21` (centres undefined) returned a TGI of over 100 µM.
For `Cn1c2ccccc2c2c3[nH]c(=O)[nH]c(=O)c3c3c4ccccc4n(C)c3c21`, the GI50 was 3.11 µM and the TGI was over 100 µM.
For the molecule `c1cc[c]([Pb]([c]2ccccc2)[c]2ccccc2)cc1`, the GI50 was 25.1 µM and the TGI was over 100 µM.
`CCOC(=O)C1(C(=O)OCC)C[C@H](C)[C@](C)(O)C1` gave a TGI of over 100 µM.
On the same count and under the same terms, for `CCOC(=O)CCn1[nH]c(=O)c(Cl)c(Cl)c1=O` the value was over 100 µM.
In the case of `C=C(C)C1CCC2(C(=O)O)CCC3(C)C(CCC4C5(C)CCC(OC(=O)NCc6ccccc6)C(C)(C)C5CCC43C)C12` (centres undefined), the GI50 is 2.64 µM and the TGI was 32.4 µM.
Consider `COc1ccc(N2C(=O)C3ON(C(C(N)=O)c4ccccc4)C(c4cc5ccccc5c5ccccc45)C3C2=O)cc1` (centres undefined), for which the TGI was over 50 µM.
For the molecule `Cc1nn(C(=O)Cc2ccccc2)c2c1C(c1ccc(N(C)C)cc1)SC(N)=N2` (centres undefined), the TGI is over 100 µM.
The molecule `CSC1=N/C(=C\c2ccccc2)C(=O)N1CN1CCCCC1` showed a TGI of over 100 µM.
Still for that read-out and setting: for `CC(C)c1cc2c(O)c(c1)Cc1cc(C(C)C)cc(c1O)Cc1cc(C(C)C)cc(c1O)Cc1cc(C(C)C)cc(c1O)C2` the value was over 100 µM; for `CCOC(=O)C(O)(NC(=O)c1ccc(F)cc1)C(F)(F)F` (centres undefined), over 100 µM.
In the case of `CCOC(=O)c1c(C)nc2c(c1N)/C(=C/c1ccc(OC)cc1)C(=O)N2Cc1ccc(F)cc1`, the GI50 was 1.16 µM and the TGI turned out to be 2.55 µM.
With `COc1cc(OC)cc(-c2nc3cc(F)ccc3s2)c1`, the TGI was over 100 µM.
On the same count and under the same terms, for `CCOP(=O)(O)C1C(CO)OC(n2ccc(=O)[nH]c2=O)C1O` (centres undefined) the value was over 100 µM; for `Cn1cnc([N+](=O)[O-])c1[Se]c1nc(N)nc2c1ncn2C1OC(CO)C(O)C1O` (centres undefined), over 100 µM.
On the same count and under the same terms, for `CCNc1cc2c(cc1O)CC[C@@H]1[C@@H]2CC[C@]2(C)[C@@H](O)CC[C@@H]12` the value was 3.88 µM.
With `CCN(CC)CCCC(C)Nc1cnc(C(=O)Nc2cccc3ccc(OC)nc23)cn1` (centres undefined), the GI50 was 2.34 µM and the TGI worked out at 5.9 µM.
In turn, `COc1ccc(O)c(/C(C)=N/NC(=S)N(C)C)c1` registered a TGI of over 100 µM.
Still for that read-out and setting: for `COc1ccc2c3c(coc13)C(CCC(=O)O)CC2` (centres undefined) the value was over 100 µM; for `CNC(=O)N1CN(c2ccccc2)C2(CCN(CCCC3(c4ccc(F)cc4)OCCO3)CC2)C1=O`, over 100 µM.
In turn, `Cc1nc(-c2ccccc2)c(-c2ccccc2)s1` had a TGI of over 100 µM.
Same read-out and setting: for `CC(C)(C)C1=CC(=C(c2ccc(-c3c4nc(c(-c5ccc(C(=C6C=C(C(C)(C)C)C(=O)C(C(C)(C)C)=C6)c6cc(C(C)(C)C)c(O)c(C(C)(C)C)c6)cc5)c5ccc([nH]5)c(-c5ccc(C(=C6C=C(C(C)(C)C)C(=O)C(C(C)(C)C)=C6)c6cc(C(C)(C)C)c(O)c(C(C)(C)C)c6)cc5)c5nc(c(-c6ccc(C(=C7C=C(C(C)(C)C)C(=O)C(C(C)(C)C)=C7)c7cc(C(C)(C)C)c(O)c(C(C)(C)C)c7)cc6)c6ccc3[nH]6)C=C5)C=C4)cc2)c2cc(C(C)(C)C)c(O)c(C(C)(C)C)c2)C=C(C(C)(C)C)C1=O` the value was over 100 µM.
On to `Fc1ccc(-c2nn3ncccc3c2-c2ccnc(Nc3ccc4c(c3)OCCO4)n2)cc1`, for which the GI50 was 2.9 µM and the TGI was over 25 µM.
In the case of `Cc1ccc(S(=O)(=O)OC(c2ccc(Cl)cc2Cl)C2OC(=O)c3ccccc32)cc1` (centres undefined), the TGI was over 100 µM.
Same read-out and setting: for `O=C1NC2OCC(O)C(O)C2O1` (centres undefined) the value was over 100 µM.
`CC[CH2][Sn]([Cl])([Cl])[CH2]CC.Oc1ccccc1C=NCCN=Cc1ccccc1O`: the GI50 was 14.3 µM and the TGI was found to be 30.4 µM.
Molecule `O=C1CCCCC2N(C(c3ccccc3)c3ccccc3)CC[C@@]12c1ccccc1` (mixture of isomers) gave a TGI of over 10 µM.
On the same count and under the same terms, for `CCc1c(C)c(C#N)c(=S)n(C2OC(COC(C)=O)C(OC(C)=O)C(OC(C)=O)C2OC(C)=O)c1C` (centres undefined) the value was over 100 µM; for `O=c1[nH]c(=O)n(C2OC(CO)C(O)C(O)C2O)cc1F` (centres undefined), over 100 µM.
The same measure, in the same setting: for `COc1ccc(N2C(=O)c3cc(C)cnc3S2(=O)=O)cc1` the value was over 100 µM; for `O=C1C=CC=C/C1=C1\N=C(c2ccccc2OCC(=O)c2ccc(Br)cc2)SS1`, over 100 µM.
As for `Cc1ccc2c(c1)CN(C(=O)CCC(=O)OCc1ccccc1)c1ccc(C)cc1CN2C(=O)CCC(=O)OCc1ccccc1`, the TGI is over 100 µM.
`COc1cc(/C=C2\N=C(c3ccccc3)N(c3nc4c(OC)ccc(OC)c4s3)C2=O)ccc1O` registered a TGI of over 100 µM.
The molecule `COc1cc2c(c(OC)c1OC)-c1c(cc3c(c1OC)OCO3)C1OC2C(C)C1C` (centres undefined) (tested in a mixture with another compound) registered a TGI of over 100 µM.
As for `C/C(=C1/CCC/C(=C(/C)c2ccccc2)C1=O)c1ccccc1`, the TGI was over 100 µM.
`O=c1c2cc(S(=O)(=O)O)ccc2nc(COc2ccc(Oc3ccc(Cl)cc3Cl)cc2)n1-c1ccc(Cl)cc1Oc1c(Cl)cccc1Cl` returned a TGI of over 100 µM.
Still for that read-out and setting: for `COc1ccc(-c2cc(=O)c3ccccc3[nH]2)c(OC)c1` the value was over 100 µM; for `O=c1[nH]nc(Cc2ccccc2)[nH]1`, over 100 µM.
On the same count and under the same terms, for `Cc1[nH]c2ccccc2c1C1Cc2ccccc2N1C(=O)/C(Cl)=C/c1ccccc1` (centres undefined) the value was over 100 µM; for `Clc1ccc(-c2c(C3=NCCCN3)nnn2-c2ccc(Cl)cc2)cc1`, over 100 µM.
